The results in this text go back to paper PMC9911399, “Two distinct binding modes provide the RNA-binding protein RbFox with extraordinary sequence specificity”.

Numbering of substitutions follows the chain as printed; changes in the protein carry UniProt numbers. Some of the results follow.

The labels stand for the following.
T1: RBFOX1 RRM RbFoxmut (Fox-RRM*) (Homo sapiens, UniProt Q9NWB1 109-208, R118D;E147R;N151S;E152T)
T1 sequence: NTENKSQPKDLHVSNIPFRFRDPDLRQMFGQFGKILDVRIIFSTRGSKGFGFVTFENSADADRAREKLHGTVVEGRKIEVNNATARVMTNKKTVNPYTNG

B1: GCAGUCU (DNA:RNA)
RNA: GGGAGACCGGAAUUCAGAUUGUCCGCAGUCUUUAAAUCCCGUCGUAGCCACCA
DNA 1: CAATCTGAATTCCGGTCTCCC
DNA 2: TGGTGGCTACGACGGGATT
B2: UAAGGAA (DNA:RNA)
RNA: B1 RNA with G25U, C26A, U29G, C30A, U31A
DNA 1: CAATCTGAATTCCGGTCTCCC
DNA 2: TGGTGGCTACGACGGGATT
B3: CGCACGG (DNA:RNA)
RNA: GGGAGACCGGAAUUCAGAUUGUCCCGCACGGUUAAAUCCCGUCGUAGCCACCA
DNA 1: CAATCTGAATTCCGGTCTCCC
DNA 2: TGGTGGCTACGACGGGATT
B4: UCGUCUC (DNA:RNA)
RNA: B3 RNA with C25U, G26C, C27G, A28U, G30U, G31C
DNA 1: CAATCTGAATTCCGGTCTCCC
DNA 2: TGGTGGCTACGACGGGATT
B5: GUCGCCA (DNA:RNA)
RNA: B1 RNA with C26U, A27C, U29C, U31A
DNA 1: CAATCTGAATTCCGGTCTCCC
DNA 2: TGGTGGCTACGACGGGATT
B6: GGCUCCA (DNA:RNA)
RNA: B3 RNA with C25G, A28U, G30C, G31A
DNA 1: CAATCTGAATTCCGGTCTCCC
DNA 2: TGGTGGCTACGACGGGATT
B7: GAUUGUA (DNA:RNA)
RNA: B1 RNA with C26A, A27U, G28U, U29G, C30U, U31A
DNA 1: CAATCTGAATTCCGGTCTCCC
DNA 2: TGGTGGCTACGACGGGATT
B8: GUGGCAA (DNA:RNA)
RNA: B1 RNA with C26U, A27G, U29C, C30A, U31A
DNA 1: CAATCTGAATTCCGGTCTCCC
DNA 2: TGGTGGCTACGACGGGATT
B9: AGUCUGU (DNA:RNA)
RNA: B3 RNA with C25A, C27U, A28C, C29U, G31U
DNA 1: CAATCTGAATTCCGGTCTCCC
DNA 2: TGGTGGCTACGACGGGATT
B10: AACUAUU (DNA:RNA)
RNA: B3 RNA with C25A, G26A, A28U, C29A, G30U, G31U
DNA 1: CAATCTGAATTCCGGTCTCCC
DNA 2: TGGTGGCTACGACGGGATT
B11: CUCUCCU (DNA:RNA)
RNA: B3 RNA with G26U, A28U, G30C, G31U
DNA 1: CAATCTGAATTCCGGTCTCCC
DNA 2: TGGTGGCTACGACGGGATT
B12: GACUUAC (DNA:RNA)
RNA: B1 RNA with C26A, A27C, G28U, C30A, U31C
DNA 1: CAATCTGAATTCCGGTCTCCC
DNA 2: TGGTGGCTACGACGGGATT
B13: UCUUUUU (DNA:RNA)
RNA: B1 RNA with G25U, A27U, G28U, C30U
DNA 1: CAATCTGAATTCCGGTCTCCC
DNA 2: TGGTGGCTACGACGGGATT
B14: GCAUCGU (DNA:RNA)
RNA: B1 RNA with G28U, U29C, C30G
DNA 1: CAATCTGAATTCCGGTCTCCC
DNA 2: TGGTGGCTACGACGGGATT
B15: AACGAAU (DNA:RNA)
RNA: B1 RNA with G25A, C26A, A27C, U29A, C30A
DNA 1: CAATCTGAATTCCGGTCTCCC
DNA 2: TGGTGGCTACGACGGGATT
B16: ACUUGGA (DNA:RNA)
RNA: B3 RNA with C25A, G26C, C27U, A28U, C29G, G31A
DNA 1: CAATCTGAATTCCGGTCTCCC
DNA 2: TGGTGGCTACGACGGGATT
B17: CACAAGC (DNA:RNA)
RNA: B3 RNA with G26A, C29A, G31C
DNA 1: CAATCTGAATTCCGGTCTCCC
DNA 2: TGGTGGCTACGACGGGATT
B18: ACAAGGU (DNA:RNA)
RNA: B1 RNA with G25A, G28A, U29G, C30G
DNA 1: CAATCTGAATTCCGGTCTCCC
DNA 2: TGGTGGCTACGACGGGATT
B19: CUCCAUU (DNA:RNA)
RNA: B3 RNA with G26U, A28C, C29A, G30U, G31U
DNA 1: CAATCTGAATTCCGGTCTCCC
DNA 2: TGGTGGCTACGACGGGATT
B20: CAUACGC (DNA:RNA)
RNA: B3 RNA with G26A, C27U, G31C
DNA 1: CAATCTGAATTCCGGTCTCCC
DNA 2: TGGTGGCTACGACGGGATT

The target of the test is T1, RBFOX1 RRM RbFoxmut (Fox-RRM*). In words: EMSA; HiTS-Eq, 1 nM pool, 10 min; buffer printed only for the single-RNA assays: 10 mM Tris pH 7.5, 150 mM NaCl, 3.4 mM EDTA, 0.001% NP-40, 30 C. The conditions noted are these: tags: His6 N-terminal (pET28a); label: 5' 32P. The essentials: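 These values rest on relative association constants, computed from read-count changes of each RNA species versus the control reaction and normalised to the cognate motif. Reads came from free RNA recovered by 8% native PAGE after purified RbFox RRM (wild type or mutant) at increasing concentrations was equilibrated for 10 min in 50 µL with 1 nM of a 5′-radiolabelled pool with 7 randomized nucleotides and DNA-annealed flanks.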
On the technique in general: In EMSA bound probe runs differently from free probe, usually more slowly.
Consider B1, for which the binding signal was 0.0528 KA relative to UGCAUGU.
In the case of B2, the binding signal was 0.0937 KA relative to UGCAUGU.
Regarding B3, the binding signal is 0.24 KA relative to UGCAUGU.
Turning to B4, the binding signal was 0.0704 KA relative to UGCAUGU.
Take B5: the binding signal was 0.0874 KA relative to UGCAUGU.
As to B6, the binding signal was 0.118 KA relative to UGCAUGU.
As for B7, the binding signal was 0.284 KA relative to UGCAUGU.
On to B8, for which the binding signal is 0.0741 KA relative to UGCAUGU.
In the case of B9, the binding signal is 0.112 KA relative to UGCAUGU.
As to B10, the binding signal is 0.0973 KA relative to UGCAUGU.
With B11, the binding signal was 0.0602 KA relative to UGCAUGU.
For the molecule B12, the binding signal was 0.0867 KA relative to UGCAUGU.
With B13, the binding signal was 0.0906 KA relative to UGCAUGU.
As for B14, the binding signal was 0.578 KA relative to UGCAUGU.
As for B15, the binding signal was 0.127 KA relative to UGCAUGU.
On to B16, for which the binding signal was 0.0823 KA relative to UGCAUGU.
Then B17, with 0.0509 KA relative to UGCAUGU; and B18, with 0.105 KA relative to UGCAUGU; and B19, with 0.0948 KA relative to UGCAUGU.
For B20, the binding signal was 0.1 KA relative to UGCAUGU.
